Laboratory results reported in the supplement of paper PMC10477191.
± gives the standard deviation of the averaged measurements. The list shows a part of the results.

System: Drosophila ezoana
Experiment: attraction index (odor vs solvent trap) (index (-1 to 1)); higher = more attraction to the odorant
Details: odor dose: 10^-2 dilution in mineral oil
Method: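 Two-choice trap assay (odor 10^-2 in mineral oil vs solvent, 20 flies, 24 h) run in a Percival incubator at test temperatures of 10-35 °C and 70% humidity, with flies reared at 18 or 25 °C. Attraction index = (O-C)/n; 10 replicates. The paper excluded the 10 and 35 °C tests because of impaired locomotion.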

[1] = test temperature 15 °C, rearing temperature 18 °C
[2] = test temperature 15 °C, rearing temperature 25 °C
[3] = test temperature 20 °C, rearing temperature 18 °C
[4] = test temperature 20 °C, rearing temperature 25 °C
[5] = test temperature 25 °C, rearing temperature 18 °C
[6] = test temperature 25 °C, rearing temperature 25 °C
[7] = test temperature 30 °C, rearing temperature 18 °C
[8] = test temperature 30 °C, rearing temperature 25 °C

Row | Compound | attraction index [1] | attraction index [2] | attraction index [3] | attraction index [4] | attraction index [5] | attraction index [6] | attraction index [7] | attraction index [8]
1 | COc1ccccc1O [guaiacol] | -0.151 ± 0.076 | -0.373 ± 0.64 | -0.369 ± 0.41 | -0.556 ± 0.36 | -0.266 ± 0.33 | -0.151 ± 0.5 | 0.374 ± 0.73 | 0.333 ± 0.32
2 | COC(=O)c1ccccc1O [methyl salicylate] | 0.109 ± 0.17 | 0.186 ± 0.8 | 0.253 ± 0.38 | 0.434 ± 0.24 | 0.117 ± 0.58 | 0.179 ± 0.62 | -0.15 ± 0.32 | -0.286 ± 0.2
3 | CC(C)OC(=O)c1ccccc1 [isopropyl benzoate] | -0.11 ± 0.45 | 0.0971 ± 0.47 | -0.102 ± 0.32 | 0.184 ± 0.41 | 0.181 ± 0.44 | -0.0366 ± 0.54 | -0.0718 ± 0.38 | 0.0764 ± 0.38
